Hit rate of the full screen: of about 43,000 compounds, about 200 (0.47%) were called active. Inconclusive results (about 12%) are left out. Calls follow the shape of the dose curve; as a rule, active = well fitted cell-killing curve with a large enough effect; inconclusive = small, poorly fitted or top-dose-only effect, or effect the other way; inactive = flat fitted curve, though single readings scatter. The list shows a part of the results.
Experiment: Cell viability qHTS assay in S16 Pmp22-F2sN cells; also: nearly all actives have a fitted effect of over 65% in size
Conditions: S16 Pmp22-F2sN Schwann cells viability, CellTiter-Glo, 24 h; series mostly up to 57.5 µM; activity change, negative = cytotoxicity: at the top concentration
Outline: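 Viability was measured by CellTiter-Glo luminescence (15 min, room temperature). This followed 24 h at 37 °C of compound exposure (23 nL pin transfer) in S16 Pmp22-F2sN Schwann cells, 500-1,000 per well.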
% is scaled to controls: 0 for no effect and ±100 for the full control effect.

| Structure (SMILES) | activity change, negative = cytotoxicity |
| --- | --- |
| CCOc1cc(-c2nnc(SCC(=O)Nc3ccc(F)c(F)c3)nc2-c2ccc(OC)c(OCC)c2)ccc1OC | inactive: 18% |
| CC(=O)N1CCc2c(sc3c2c(=O)n(-c2ccccc2)c(=O)n3CC(=O)Nc2cccc(C)c2)C1 | inactive: 12.8% |
| CCOc1ccc(CNS(=O)(=O)c2c(C(=O)N3CCC(C)CC3)c(C)n(C)c2C)cc1OC | inactive: -3.04% |
| Cc1c(C(=O)OC2CCCC2)[nH]c2c1C(=O)CC(c1ccc(Cl)cc1)C2 (stereo not given) | inactive: -22% |
| O=C(CSc1nnc(-c2ccccc2)c(-c2ccccc2)n1)NC1CCCCC1 | inactive: 7.46% |
| Cc1ccc(N2CC(NC(=O)Cc3cccs3)CC2=O)cc1C (stereo not given) | inactive: 3.6% |
| CCOC(=O)N1CCc2c(sc(NCc3cccc(F)c3)c2C(=O)Nc2ccccc2OCC)C1 | inactive: -1.04% |
| Cc1nc(N2C(=O)c3oc4ccccc4c(=O)c3C2c2cccc(OCCC(C)C)c2)sc1C (stereo not given) | inactive: -9.26% |
| CCOc1ccc(/C=C(\C#N)c2nc3ccccc3c(=O)[nH]2)cc1OC | inactive: 7.73% |
| CCOc1ccccc1NC(=O)C1CCCN(S(=O)(=O)c2c(C)[nH]c(=O)[nH]c2=O)C1 (stereo not given) | inactive: 14.4% |
| COC(=O)c1nnn(CC(=O)NC(=O)Nc2cccc(C)c2C)c1C(=O)OC | inactive: 5.15% |
| CCc1nc2ccc(C(=O)N3CCN(c4ccccc4)CC3)cc2nc1CC | inactive: -15.9% |
| Cc1ccc(CNC(=O)c2cc3c(s2)-c2ccccc2SC3)cc1 | inactive: -18% |
| CCOC(=O)c1cc(-c2ccccc2)n(CC(=O)NC(C)c2ccccc2)c1C (stereo not given) | inactive: -0.759% |
| CCOC(=O)c1ccc(NC(=O)Nc2c[nH]c(=O)[nH]c2=O)cc1 | inactive: 3.07% |
| CC(C)CN(CCCNC(=O)Cn1ncc2c3ccccc3n(C)c2c1=O)CC(C)C | inactive: 3.74% |
| CCc1ccc(OC(C)C(=O)N2CCC(c3nc4ccccc4s3)CC2)cc1 (stereo not given) | inactive: -24.4% |
| Cc1cc(C)cc(NC(=O)CCS(=O)(=O)c2cc3c4c(c2)CCN4C(=O)CC3)c1 | inactive: -3.06% |
| CN(c1ncnc2onc(-c3cccc(Cl)c3)c12)C1CCCCC1 | inactive: -14% |
| CCc1ccc(-n2nc3cc(C)c(NC(=O)c4cccc5ccccc45)cc3n2)cc1 | inactive: 2.33% |

| Structure (SMILES) | activity change, negative = cytotoxicity |
| --- | --- |
| COc1ccc(N2CC(NC(=O)COc3ccccc3)CC2=O)cc1OC (stereo not given) | inactive: 2.61% |
| Cn1c(=O)c2c(SCC(=O)NCc3ccco3)nc(-c3ccccc3)nc2n(C)c1=O | inactive: -14.3% |
| CC1CCn2c(nc3cc(C(=O)NCCc4ccc(Cl)cc4)ccc32)C1 (stereo not given) | inactive: 0.717% |
| Cc1ccc(-n2nc(CO)c(C(=O)NCc3ccccn3)n2)cc1C | inactive: 0.302% |
| Nc1nc(Nc2ccccc2F)sc1C(=O)c1ccc(Cl)cc1 | inactive: 1.45% |
| CCOC(=O)c1noc2ncn(CC(=O)Nc3ccc(C)c(F)c3)c(=O)c12 | inactive: 3.56% |
| Cc1cccc(NC(=O)CCS(=O)(=O)c2ccc3c(c2)n(C)c(=O)c(=O)n3C)c1C | inactive: 3.81% |
| Cc1c(C(=O)N(Cc2ccccc2F)C2CCS(=O)(=O)C2)oc2ccc(F)cc12 (stereo not given) | inactive: -6.16% |
| Cc1ccc(-n2c(=O)c3c(C)c(C(=O)N(C)C)sc3n(CC(=O)C(C)(C)C)c2=O)cc1C | inactive: -2.78% |
| O=c1cc(-c2ccccc2)n2c(SCc3ccccc3)nnc2[nH]1 | inactive: 13.4% |
| Cc1cccc(Cn2c(CNS(=O)(=O)c3ccc4c(c3)CCCC4)nc3cccnc32)c1 | inactive: -11.7% |
| COc1ccc(Cc2nc3ccccc3[nH]c2=O)cc1 | inactive: 3.68% |
| C=Cc1ccc(Cn2c(C)c(CNCc3cccc(Br)c3)c(C(=O)O)c2C)cc1 | inactive: 5.34% |
| COc1ccc(F)cc1S(=O)(=O)NCCc1csc2nc(-c3cccc(C)c3)nn12 | inactive: 0.364% |
| O=C(c1ccccc1Cl)N1c2ncnn2C2(CCCCC2)[C@@H]2CCCC[C@@H]21 | inactive: -12.9% |
| COC(=O)c1ccc(OCC2c3cc(OC)c(OC)cc3CCN2C(=O)COc2ccc(Cl)cc2)cc1 (stereo not given) | inactive: 5.79% |
| Cc1c(Cl)cccc1NC(=O)Cn1c(CCC(=O)O)ccc1-c1cccs1 | inactive: 9.18% |
| CCOC(=O)c1c(NC(C)=O)c2c3c(sc2n1Cc1nc(-c2cccc(Cl)c2)oc1C)CCCC3 | inactive: 9.9% |
| Cc1ccc2oc3c(c(=O)c2c1)C(c1ccc(F)cc1)N(Cc1ccc2c(c1)OCO2)C3=O (stereo not given) | inactive: 5.79% |
| CC(=O)c1cccc(NC(=O)c2sc(-n3nc(C)c(Cc4ccc5c(c4)OCO5)c3C)nc2C)c1 | inactive: -15.1% |

| Structure (SMILES) | activity change, negative = cytotoxicity |
| --- | --- |
| COc1ccccc1CCNC(=O)C(=O)NCC(c1ccc2c(c1)OCO2)N1CCOCC1 (stereo not given) | inactive: -12.8% |
| CCOc1ccc(-c2cccc(NS(=O)(=O)c3c(C)cc(C)cc3C)c2)nn1 | inactive: -4.46% |
| CCN(C(=O)C1CCN(S(=O)(=O)c2ccc3c(c2)CCCN3C(C)=O)CC1)c1cccc(C)c1 | inactive: -9.65% |
| COc1cccc(CNC(=O)C(=O)Nc2c3c(nn2-c2ccccc2)CSC3)c1 | inactive: -9.04% |
| COC(=O)c1ccccc1NC(=O)CSc1nc2ccsc2c(=O)n1CCC(C)C | inactive: -3.82% |
| CCOc1cc(C(=O)NCCc2csc3nc(-c4ccc(C)cc4)nn23)cc(OCC)c1OCC | inactive: 1.63% |
| COc1ccc(OC)c(-c2nnc3n(Cc4ccc(C)cc4)c(=O)c4ccccc4n23)c1 | inactive: -3% |
| CC(C)(C)OC(=O)N1CCC(c2c(C(=O)N3CCCCC3)cnn2-c2ccc(Cl)cc2)CC1 | inactive: 7.2% |
| CCCOc1cccc(C(=O)N(Cc2ccc(C)o2)C2CCS(=O)(=O)C2)c1 (stereo not given) | inactive: -0.193% |
| CCCCN(CC)CCNC(=O)Cn1cc2c(n1)-c1c(oc(C(=O)N3CCCC3)c1C)CC2 | inactive: 7.62% |
| CN(C(=O)CSc1cn(CC(=O)N2CCOCC2)c2ccccc12)c1ccccc1 | inactive: 4.66% |
| CC(=O)N1CCCc2cc(S(=O)(=O)N3CCC(C(=O)NCc4cccc(C)c4)CC3)ccc21 | inactive: -0.473% |
| COc1cccc(Cn2c(=O)n(Cc3ccco3)c(=O)c3oc4ccccc4c32)c1 | inactive: -4.09% |
| COC(=O)c1ccccc1NC(=O)c1c(NC(=O)c2ccco2)sc2c1CCC(C(C)(C)C)C2 (stereo not given) | inactive: -7.62% |
| COCCNc1sc(S(=O)(=O)c2ccc(C)cc2)nc1S(=O)(=O)c1ccc(C)cc1 | inactive: 8.55% |
| CC(=O)Nc1ccc(NC(=O)CSc2nccn2C)cc1 | inactive: 15.4% |
| CCCN(C(=O)c1noc2c1COc1ccc(C)cc1-2)c1ccc(Cl)c(Cl)c1 | inactive: 27.7% |
| CCOC(=O)c1cc2c(=O)n3ccccc3nc2n(CC(C)C)c1=NC(=O)c1c(-c2c(F)cccc2Cl)noc1C | inactive: -19% |
| CCc1nc(-c2cc(S(=O)(=O)N3CCN(c4ccccc4OC)CC3)ccc2OC)no1 | inactive: -1.38% |
| CCOC(=O)Cn1c(=O)c2c(nc3n2CCN3c2ccc(CC)cc2)n(C)c1=O | inactive: -3.23% |

Source: PubChem BioAssay AID1508642 (National Center for Advancing Translational Sciences (NCATS), 2021)
